# Measurements as given in PubChem BioAssay AID504832 (National Center for Advancing Translational Sciences (NCATS), 2011).
# About 18,000 (5.8%) of roughly 310,000 compounds were called active. Inconclusive results, whose numbers are uncertain, are shown with a selection of clear calls. The call rests on the fitted dose curve; in most records, active means well fitted inhibition curve with a large enough effect; inconclusive means small, poorly fitted or top-dose-only effect, or another doubt; inactive means no such curve, though single readings can be large or run the other way. No potency is given beside an inconclusive call; the fits are too rough.
# Experiment: Primary qHTS for delayed death inhibitors of the malarial parasite plastid, 48 hour incubation
# Settings: P. falciparum luciferase growth in erythrocytes; series mostly up to 28.7 µM; activity change, negative = inhibition: at the top concentration
# Method in brief: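 First compound was added to culture medium, then infected red cells at 0.1% parasitemia and 2% hematocrit (final). After incubation at 37 C under 5% CO2, luciferase detection reagent was dispensed and light output recorded.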
# On the % scale 0 is the no-effect control and ±100 the full control effect; potency means the concentration at half of the fitted maximal effect; tags describe the fitted curve by direction and shape.
SMILES,Potency,"activity change, negative = inhibition"
C=CCOC(=O)C1=C[C@@H](c2coc3ccccc3c2=O)[C@H](CCCO)[C@@H](OCC)O1,"inconclusive [inhibitor, full curve, poor fit]",–
Cc1ccc2c(c1)N(S(=O)(=O)c1cc(-c3onc(C)c3C)ccc1C)CCO2,"inconclusive [inhibitor, single point]",–
O=C(NC1CC2CCCC(C1)N2Cc1ccccc1)c1cccc(F)c1 (stereo not drawn),"inconclusive [inhibitor, single point]",–
Cc1cccc(NC(=S)Nc2cccc3ccccc23)c1,active: 10.4 µM,–
COc1ccccc1NS(=O)(=O)c1ccc(C)c(C(=O)NC2=NCCS2)c1,"inconclusive [inhibitor, single point]",–
Cc1ccc(NC(=O)/C(=C\c2ccccc2)NC(=O)/C=C/c2ccccc2)cc1,"inconclusive [inhibitor, full curve, poor fit]",–
O=C(CNc1cccc([N+](=O)[O-])c1)N/N=C/c1ccc([N+](=O)[O-])o1,"inconclusive [inhibitor, full curve]",–
C=CCNC1=C(Cl)C(=O)N(c2cccc(Cl)c2Cl)C1=O,–,inactive: 1.52%
C[C@@H]1NC(=O)[C@H](CCCN=C(N)N)NC(=O)c2cc([N+](=O)[O-])cc(I)c2NCCC[C@@H](C(N)=O)NC1=O,–,inactive: 23.7%
Cc1cccc(NC(=S)N(C)C2(c3ccccc3Cl)CCCCC2=O)c1 (stereo not drawn),"inconclusive [inhibitor, single point]",–
COc1ccc(CCNC(=O)c2cc(COc3c(C)cccc3C)on2)c(OC)c1,–,inactive: 1.17%
COc1ccc([C@H]2CC(=O)C=C(c3ccc(C)c([N+](=O)[O-])c3)C2)cc1,–,inactive: 4.9%
CCCCCCOC(=O)Cc1c(C)nc(N)[nH]c1=O,"inconclusive [inhibitor, single point]",–
CCOc1ccc(NC(=O)COC(=O)C23CC4CC(CC(C4)C2)C3)c([N+](=O)[O-])c1,"inconclusive [inhibitor, single point]",–
CCc1cccc(NC(=O)c2cccc(S(=O)(=O)N3CCN(C)CC3)c2)c1,–,inactive: 9.96%
COC(=O)c1[nH]c2ccc(Br)cc2c1NC(=O)CN1CCN(C2CCCCC2)CC1,"inconclusive [inhibitor, single point]",–
O=[N+]([O-])c1cccc(/C=N/n2c(-c3cccnc3)n[nH]c2=S)c1,–,inactive: 13.3%
Cc1cc(-c2ccccc2)nc(Oc2ccc(C(C)(C)C)cc2)c1S(C)(=O)=O,"inconclusive [inhibitor, full curve, poor fit]",–
Cc1cccc(N(Cc2cc(=O)[nH]c3ccccc23)C(=O)C(C)C)c1,"inconclusive [inhibitor, partial curve]",–
COc1cc(NC(=S)NCCCN2CCOCC2)c(OC)cc1NC(=O)c1ccco1,–,inactive: 43.9%
Cn1cc(CN2CCC(C(=O)Nc3ccc(Oc4ccccc4F)cc3)CC2)cn1,–,inactive: -14.7%
CCC(C)c1ccc(NC(=S)NCc2ccccc2OC)cc1 (stereo not drawn),"inconclusive [inhibitor, single point]",–

SMILES,Potency,"activity change, negative = inhibition"
COc1ccc(NC(=O)CCc2ccccc2)cc1S(=O)(=O)N1CCCCC1,"inconclusive [inhibitor, single point]",–
Cc1noc(C)c1S(=O)(=O)N(CCc1ccccc1)Cc1ccccc1,"inconclusive [inhibitor, single point]",–
O=C(CSc1nnc(-c2c[nH]c3ccccc23)o1)N1c2ccccc2CCc2ccccc21,"inconclusive [inhibitor, full curve]",–
COc1ccc(CN(Cc2cccnc2)S(=O)(=O)c2ccc(-n3cnnn3)c(OC)c2)cc1,active: 11.7 µM,–
Cc1ccc(Oc2ccc(S(=O)(=O)N3CCOCC3)cc2C(N)=O)cc1C,"inconclusive [inhibitor, partial curve, poor fit]",–
COc1cccc(N2CCN(C(=O)c3cn(Cc4ccccc4)nc3-c3cccnc3)CC2)c1,"inconclusive [inhibitor, partial curve, poor fit]",–
CCOc1ccc2nc(NCCNC(=O)Nc3ccccc3)c(C#N)cc2c1,"inconclusive [inhibitor, partial curve]",–
CC(C)(C)NC(=O)C(c1ccc(F)cc1)N(Cc1ccco1)C(=O)CCC(=O)Nc1nccs1 (stereo not drawn),"inconclusive [inhibitor, partial curve]",–
CC(O)[C@H]1CNC(=O)C(=O)N1CCCCC1CCCCC1 (stereo partly drawn),–,inactive: -11.9%
COc1cc2c(cc1OC)CN(C(=O)/C=C/c1cccc([N+](=O)[O-])c1)CC2,–,inactive: -15.5%
CSc1nc(Sc2ccc(Cl)cc2)c2ccccc2n1,active: 2.62 µM,–
C=CCOc1cccc(CNc2ccc3[nH]c(=O)[nH]c3c2)c1,–,inactive: 1.83%
Cc1ccc([N+](=O)[O-])cc1Nc1nc(N2CCOCC2)nc(N2CCOCC2)n1,"inconclusive [inhibitor, single point]",–
Cc1ccc(C2(c3ccccc3)NC(=O)N(CC(=O)NC3CCS(=O)(=O)C3)C2=O)cc1C (stereo not drawn),–,inactive: -12.2%
COc1ccc(N(C)C(=O)c2cnc(N3CCN(c4ncccn4)CC3)c3ccccc23)cc1,"inconclusive [inhibitor, partial curve, poor fit]",–
O=S(=O)(NCCC1=CCCCC1)c1c(Cl)cccc1Cl,"inconclusive [inhibitor, single point]",–
CCC(=O)c1cn(Cc2ccc(C#N)cc2)c2ccccc12,"inconclusive [inhibitor, single point]",–
O=C(Cc1ccccc1)N1CCN(C(=O)c2ccco2)CC1,–,inactive: 20.9%
CCOC(=O)N1CCN(C(=O)CSc2nc3c([nH]c4ccccc43)c(=O)n2CCOC)CC1,"inconclusive [inhibitor, single point]",–
Cc1ccc(N2CCN(S(=O)(=O)c3ccc4c(c3)oc(=O)n4C)CC2C)cc1 (stereo not drawn),"inconclusive [inhibitor, single point]",–
COc1ccc(CCN2CC(C(=O)N(C)C3CCOCC3)CCC2=O)cc1 (stereo not drawn),"inconclusive [inhibitor, full curve, poor fit]",–
